# Laboratory results as given in the supplement of paper PMC10037445.
# The full ranking holds about 2,900 compounds; the median of “IRF Lucia reporter activity, fold change vs agonist alone” is about 0.9, and the highest 2% start at about 2.8. The list shows a part of the results.
# Columns and labels:
# [1] = system: RAW-Dual; assay: IRF Lucia reporter activity, fold change vs agonist alone; cytotoxicity flag (confluency mask): not cytotoxic; higher = enhanced IRF activity
# Method in brief: (§1)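 RAW-Dual macrophages (50,000 cells/well in DMEM, 384-well plates) received 50 nL of library stock by pin tool, then a PRR agonist 1 h later, and were kept at 37 °C, 5% CO2. After 20 hours, supernatant was read for IRF by QuantiLuc luminescence and for NF-κB by QuantiBlue absorbance at 620 nm. Reporter activity is fold change over agonist-alone wells. Cytotoxic wells had IncuCyte confluency below 70% of agonist controls in both mask sets.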
# [2] = system: RAW-Dual; assay: IRF Lucia reporter activity, fold change vs agonist alone; higher = enhanced IRF activity; details: library stock concentration (final ~1000-fold dilution): 10 mM, agonist: MPLA (TLR4) […]
# Method in brief: as §1
# [3] = system: RAW-Dual; assay: IRF Lucia reporter activity, fold change vs agonist alone; cytotoxicity flag (confluency mask): cytotoxic (confluency <70% of control); higher = enhanced IRF activity
# Method in brief: as §1
# [4] = agonist: 3'3'-cGAMP (STING) 10 ug/mL
# [5] = cytotoxicity flag (confluency mask): not cytotoxic
# [6] = cytotoxicity flag (confluency mask): cytotoxic (confluency <70% of control)
smiles,measurement,setting,value
CC(OC1OCCN(Cc2n[nH]c(=O)[nH]2)C1c1ccc(F)cc1)c1cc(C(F)(F)F)cc(C(F)(F)F)c1 (stereo not given) (library stock concentration (final ~1000-fold dilution): 10 mM),IRF Lucia reporter activity,[1]; [4],1.12
same,IRF Lucia reporter activity,[1]; agonist: LPS (TLR4) 0.1 ug/mL,0.857
CC(OC1OCCN(Cc2n[nH]c(=O)[nH]2)C1c1ccc(F)cc1)c1cc(C(F)(F)F)cc(C(F)(F)F)c1 (stereo not given),IRF Lucia reporter activity,[2]; [5],0.817
CCCCCCCCOc1ccccc1C(=O)Nc1ccc(C(=O)OCC[N+](C)(CC)CC)cc1,IRF Lucia reporter activity,[2]; [6],1.43
CCCCCCCCOc1ccccc1C(=O)Nc1ccc(C(=O)OCC[N+](C)(CC)CC)cc1 (library stock concentration (final ~1000-fold dilution): 10 mM),IRF Lucia reporter activity,[3]; [4],0.662
same,IRF Lucia reporter activity,[3]; agonist: LPS (TLR4) 0.1 ug/mL,0.688
CC(C)(C)NC(=O)NC(C(=O)N1CC2C(C1C(=O)NC(CC1CCC1)C(=O)C(N)=O)C2(C)C)C(C)(C)C (stereo not given) (library stock concentration (final ~1000-fold dilution): 10 mM),IRF Lucia reporter activity,[1]; [4],0.998
same,IRF Lucia reporter activity,[1]; agonist: LPS (TLR4) 0.1 ug/mL,1.05
CC(C)(C)NC(=O)NC(C(=O)N1CC2C(C1C(=O)NC(CC1CCC1)C(=O)C(N)=O)C2(C)C)C(C)(C)C (stereo not given),IRF Lucia reporter activity,[2]; [5],1.03
CC1=NN(c2ccc(C(=O)O)cc2)C(=O)/C1=C\c1ccc(-c2cc(C)c(C)cc2[N+](=O)[O-])o1 (library stock concentration (final ~1000-fold dilution): 10 mM),IRF Lucia reporter activity,[1]; [4],1.01
same,IRF Lucia reporter activity,[1]; agonist: LPS (TLR4) 0.1 ug/mL,0.318
CC1=NN(c2ccc(C(=O)O)cc2)C(=O)/C1=C\c1ccc(-c2cc(C)c(C)cc2[N+](=O)[O-])o1,IRF Lucia reporter activity,[2]; [5],0.846
c1ccc(C(c2ccccc2)N2CCN(Cc3ccc4c(c3)OCO4)CC2)cc1,IRF Lucia reporter activity,[2]; [5],0.574
c1ccc(C(c2ccccc2)N2CCN(Cc3ccc4c(c3)OCO4)CC2)cc1 (library stock concentration (final ~1000-fold dilution): 10 mM),IRF Lucia reporter activity,[1]; [4],0.791
same,IRF Lucia reporter activity,[1]; agonist: LPS (TLR4) 0.1 ug/mL,0.74
O=C(O)CCC(=O)c1ccc(-c2ccccc2)cc1 (library stock concentration (final ~1000-fold dilution): 10 mM),IRF Lucia reporter activity,[1]; [4],1.15
same,IRF Lucia reporter activity,[1]; agonist: LPS (TLR4) 0.1 ug/mL,1.2
O=C(O)CCC(=O)c1ccc(-c2ccccc2)cc1,IRF Lucia reporter activity,[2]; [5],1.15
CNc1ccc([N+](=O)[O-])c(Nc2ccc3[nH]ncc3c2)n1 (library stock concentration (final ~1000-fold dilution): 10 mM),IRF Lucia reporter activity,[1]; [4],0.0349
same,IRF Lucia reporter activity,[1]; agonist: LPS (TLR4) 0.1 ug/mL,0.0346
O=C(c1ccc(Cl)cc1)N(Cc1ccccc1)C1CCCCC1 (library stock concentration (final ~1000-fold dilution): 10 mM),IRF Lucia reporter activity,[1]; [4],1.56
same,IRF Lucia reporter activity,[1]; agonist: LPS (TLR4) 0.1 ug/mL,1.11
O=C(Nc1ccccc1)N1CCN(c2nc(-c3ccccc3)ns2)CC1,IRF Lucia reporter activity,[2]; [5],1.1
O=C(Nc1ccccc1)N1CCN(c2nc(-c3ccccc3)ns2)CC1 (library stock concentration (final ~1000-fold dilution): 10 mM),IRF Lucia reporter activity,[1]; [4],0.61
same,IRF Lucia reporter activity,[1]; agonist: LPS (TLR4) 0.1 ug/mL,0.914
Clc1cccc(CN=C2Nc3ccccc3NC23CCNCC3)c1 (library stock concentration (final ~1000-fold dilution): 10 mM),IRF Lucia reporter activity,[1]; [4],0.383
same,IRF Lucia reporter activity,[1]; agonist: LPS (TLR4) 0.1 ug/mL,1.2
C/C(=C\C(=O)OCCCCCCCCC(=O)O)CC1OCC(CC2OC2C(C)C(C)O)C(O)C1O (stereo not given) (library stock concentration (final ~1000-fold dilution): 10 mM),IRF Lucia reporter activity,[1]; [4],1.05
same,IRF Lucia reporter activity,[1]; agonist: LPS (TLR4) 0.1 ug/mL,0.826
C/C(=C\C(=O)OCCCCCCCCC(=O)O)CC1OCC(CC2OC2C(C)C(C)O)C(O)C1O (stereo not given),IRF Lucia reporter activity,[2]; [5],0.932
CN(c1ncccc1CNc1nc(Nc2ccc3c(c2)CC(=O)N3)ncc1C(F)(F)F)S(C)(=O)=O (library stock concentration (final ~1000-fold dilution): 10 mM),IRF Lucia reporter activity,[3]; [4],0.015
same,IRF Lucia reporter activity,[3]; agonist: LPS (TLR4) 0.1 ug/mL,0.0167
CN(c1ncccc1CNc1nc(Nc2ccc3c(c2)CC(=O)N3)ncc1C(F)(F)F)S(C)(=O)=O,IRF Lucia reporter activity,[2]; [6],0.0179
CC(=O)N=c1sc(S(N)(=O)=O)nn1C (library stock concentration (final ~1000-fold dilution): 10 mM),IRF Lucia reporter activity,[1]; [4],1.01
same,IRF Lucia reporter activity,[1]; agonist: LPS (TLR4) 0.1 ug/mL,1.23
CC(=O)N=c1sc(S(N)(=O)=O)nn1C,IRF Lucia reporter activity,[2]; [5],1.08
Nc1cc(C(F)(F)F)c(-c2cc(N3CCOCC3)nc(N3CCOCC3)n2)cn1,IRF Lucia reporter activity,[2]; [5],1.09
Nc1cc(C(F)(F)F)c(-c2cc(N3CCOCC3)nc(N3CCOCC3)n2)cn1 (library stock concentration (final ~1000-fold dilution): 10 mM),IRF Lucia reporter activity,[1]; [4],0.171
same,IRF Lucia reporter activity,[1]; agonist: LPS (TLR4) 0.1 ug/mL,1.05
COCCCOc1ccnc(CS(=O)c2nc3ccccc3[nH]2)c1C (stereo not given) (library stock concentration (final ~1000-fold dilution): 10 mM),IRF Lucia reporter activity,[1]; [4],0.92
same,IRF Lucia reporter activity,[1]; agonist: LPS (TLR4) 0.1 ug/mL,1.14
COCCCOc1ccnc(CS(=O)c2nc3ccccc3[nH]2)c1C (stereo not given),IRF Lucia reporter activity,[2]; [5],1.07
Cc1ccc(Sc2cncc3sc(C(N)=O)cc23)cc1 (library stock concentration (final ~1000-fold dilution): 10 mM),IRF Lucia reporter activity,[1]; [4],0.152
same,IRF Lucia reporter activity,[1]; agonist: LPS (TLR4) 0.1 ug/mL,0.134
Cc1ccc(Sc2cncc3sc(C(N)=O)cc23)cc1,IRF Lucia reporter activity,[2]; [5],0.166
